According to PubChem BioAssay AID504832 (National Center for Advancing Translational Sciences (NCATS), 2011):
Screen size: about 310,000 compounds; about 18,000 (5.8%) were called active. This list was built around the results that the source calls inconclusive (neither active nor inactive); the mix of calls is not that of the screen. The call rests on the fitted dose curve; in most records, active means well fitted inhibition curve with a large enough effect; inconclusive means small, poorly fitted or top-dose-only effect, or another doubt; inactive means no such curve, though single readings can be large or run the other way. Potencies of inconclusive entries are left out as doubtful fits.
On the % scale 0 is the no-effect control and ±100 the full control effect; potency means the concentration at half of the fitted maximal effect; tags describe the fitted curve by direction and shape.

Test: Primary qHTS for delayed death inhibitors of the malarial parasite plastid, 48 hour incubation
Conditions: P. falciparum luciferase growth in erythrocytes; series mostly up to 28.7 µM; activity change, negative = inhibition: at the top concentration
Summary of the method: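 Growth was read as firefly luciferase luminescence after a 48 h, 37 C, 5% CO2 exposure of compounds to reporter-bearing P. falciparum cultures (0.1% parasitemia, 2% hematocrit final) in Albumax-supplemented RPMI 1640.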
For COc1ccc(C(=O)C(C)N(C(=O)c2ccc(Cl)cc2Cl)N2C(=O)C3C4C=CC(C4)C3C2=O)cc1 (configuration not stated), the Potency was active: 7.38 µM.
In the case of Cc1nccn1Cc1ccc(Cl)nc1, the Potency is reported as active: 10.4 µM.
For COc1ccc(C2=NOC(C(=O)N3CCN(C(=O)c4ccco4)CC3)C2)cc1OC (configuration not stated), the “activity change, negative = inhibition” value was inactive: -8.46%.
For CC1CC(=O)N(CC(=O)Nc2ccc3c(c2)OCO3)c2ccccc2S1 (configuration not stated), the Potency was inconclusive [inhibitor, partial curve].
In the case of CCCOc1ccc2nc(C)c(CCC)c(SC(=N)N)c2c1, the Potency is reported as active: 1.17 µM.
In the case of CCCCOC(=O)Cn1c(=N)n(CCN(CC)CC)c2ccccc21, the “activity change, negative = inhibition” value is reported as inactive: 19.6%.
For O=C(CNC(=O)N1CC(=O)Nc2ccccc21)Nc1cc(Cl)ccc1Cl, the “activity change, negative = inhibition” value was inactive: -22.8%.
With CC(=O)Nc1ccc(S(=O)(=O)N(C)CC(=O)OCC(=O)N2CCCCCC2)cc1 the Potency was inconclusive [inhibitor, single point].
In the case of COc1ccc(C2C(Oc3ccccc3C)C(=O)N2Cc2ccc(F)cc2)cc1OC (configuration not stated), the Potency is reported as inconclusive [inhibitor, partial curve].
For O=C(N/N=C/c1cc([N+](=O)[O-])ccc1O)c1c[nH]c2ccccc12, the Potency was inconclusive [inhibitor, single point].
With C=CCC(O)(CC=C)CNC(=O)C1CCC(=O)N(CCCc2ccccc2)C1 (configuration not stated) the “activity change, negative = inhibition” value was inactive: 14.7%.
For COc1cc2nc(CN3CCN(S(=O)(=O)c4ccc(Cl)cc4)CC3)[nH]c(=O)c2cc1OC, the Potency was inconclusive [inhibitor, partial curve, poor fit].
In the case of CCOC(=O)N1CCN(C(=O)CSc2nnc(COc3ccccc3)o2)CC1, the “activity change, negative = inhibition” value is reported as inactive: -18.3%.
In the case of Cc1ccc(Oc2cc(N3CCOCC3)nc(-c3ccccc3)n2)cc1, the “activity change, negative = inhibition” value is reported as inactive: -8.68%.
With CCC1(c2ccc(C)cc2)NC(=O)N(C(C)C(=O)Nc2ccc(N3CCOCC3)cc2)C1=O (configuration not stated) the Potency was inconclusive [inhibitor, partial curve].
With O=C(C(=O)N1CC=C(c2ccccc2)CC1)c1c[nH]c2ccccc12 the “activity change, negative = inhibition” value was inactive: 10.2%.
For Cc1cccc(OCc2nnc(SCc3cc(=O)[nH]c4ccccc34)n2-c2ccccc2)c1, the Potency was inconclusive [inhibitor, single point].
For S=C(NCCCc1ccccc1)NC1CCCCC1, the Potency was inconclusive [inhibitor, partial curve, poor fit].
In the case of CCc1nccn1CCC(=O)N1CCCC(N2CCN(c3ccccc3F)CC2)C1 (configuration not stated), the “activity change, negative = inhibition” value is reported as inactive: -21.7%.
With C/C=C/C=N/NC(=O)CN(c1ccc(Br)cc1)S(=O)(=O)c1ccccc1 the Potency was inconclusive [inhibitor, single point].
With CCOC(=O)C1=C(C)NC(=O)NC1c1ccc(OCC(N)=O)cc1 (configuration not stated) the Potency was inconclusive [inhibitor, single point].
In the case of COC(=O)c1ccc(NC(=O)C23CC4CC(C2)CC(n2cnc(Cl)n2)(C4)C3)cc1, the Potency is reported as inconclusive [inhibitor, single point].
For CC(=O)N1c2ccc(S(=O)(=O)NCC3CCC(C(=O)N4CCC(C)CC4)CC3)cc2CC1C (configuration not stated), the “activity change, negative = inhibition” value was inactive: -9.17%.
For Clc1ccc(COn2c(-c3ccc(Cl)cc3)nc3ccccc32)cc1, the Potency was inconclusive [inhibitor, single point].
For COc1ccc(NC(=O)c2cc(-c3ccco3)on2)cc1OC, the “activity change, negative = inhibition” value was inactive: 39.8%.
For COc1ccc(/C=C2\SC(=S)NC2=O)cc1OS(=O)(=O)c1ccc(NC(C)=O)cc1, the Potency was inconclusive [inhibitor, partial curve].
For COCCn1c(SCC(=O)Nc2cc(C(C)(C)C)nn2-c2ccccc2)nc2ccccc2c1=O, the “activity change, negative = inhibition” value was inactive: -10.6%.
For CC1CC(C)CN(C(=O)Cn2c(=O)n(CCCCC(=O)NCc3ccco3)c(=O)c3ccccc32)C1 (configuration not stated), the Potency was inconclusive [inhibitor, single point].
For CCC(C)c1ccc(N(CC(=O)NC(C)(C)C)C(=O)CNC(=O)c2cccs2)cc1 (configuration not stated), the Potency was inconclusive [inhibitor, single point].
In the case of CCCCCCCN1C(N(C)C)=NC[C@@H]1Cc1ccccc1, the Potency is reported as active: 4.65 µM.
For Cc1ccc(NC(=O)c2cc([N+](=O)[O-])ccc2N2CCOCC2)cc1S(=O)(=O)N1CCOCC1, the Potency was inconclusive [inhibitor, single point].
For Cc1ccccc1OCCn1cc(/C=C(\C#N)C(=O)NCc2ccco2)c2ccccc21, the “activity change, negative = inhibition” value was inactive: 5.73%.
With Cc1ccccc1NS(=O)(=O)c1cc2c(cc1C)NC(=O)CO2 the “activity change, negative = inhibition” value was inactive: -5.62%.
With COc1ccc(-c2[nH]ncc2CNC(C)c2ccccc2Cl)cc1F (configuration not stated) the Potency was inconclusive [inhibitor, single point].
With Cn1ccnc1SCC(=O)Nc1cccc(S(=O)(=O)N2CCCCC2)c1 the Potency was inconclusive [inhibitor, single point].
In the case of O=C(Oc1c(Cl)cc(Cl)c2ccccc12)N1CCCC1, the Potency is reported as inconclusive [inhibitor, single point].
In the case of COC/C=C/C1=CC2=CC(=O)C(C)(OC(=O)c3cnc4ccccc4n3)C(=O)C2=CN1c1ccc(CO)cc1 (configuration not stated), the “activity change, negative = inhibition” value is reported as inactive: 36.1%.
For OCCCN1CCN(CCCOc2ccccc2-c2ccccc2)CC1, the Potency was inconclusive [inhibitor, partial curve, poor fit].
With COc1ccccc1/C=C(\NC(=O)c1cccc(C)c1)C(=O)Nc1ccccn1 the Potency was inconclusive [inhibitor, partial curve, poor fit].
In the case of COc1ccc(NS(=O)(=O)c2ccc(N3CCCC3=O)cc2)cn1, the Potency is reported as inconclusive [inhibitor, partial curve, poor fit].
In the case of CCN(CC)CCNC(=O)c1ccc(Cl)c(S(=O)(=O)Nc2ccccc2OC)c1, the Potency is reported as inconclusive [inhibitor, partial curve, poor fit].
For Cc1cc(NC(=O)CCC(=O)N(Cc2ccco2)C2(C(=O)NC3CCCC3)CCCCC2C)no1 (configuration not stated), the Potency was inconclusive [inhibitor, single point].
With Cc1ccc(C)c(S(=O)(=O)N2CCCCC2CCNC(=O)C(=O)NCc2ccccc2)c1 (configuration not stated) the Potency was inconclusive [inhibitor, partial curve, poor fit].
With O=C(CN1CCCC1)Nc1ccc(NC(=O)Nc2ccccc2Cl)cc1 the “activity change, negative = inhibition” value was inactive: 0%.
In the case of COc1ccc(NC(=O)CSc2nnc(CNC(=O)c3cccs3)o2)c(OC)c1, the Potency is reported as inconclusive [inhibitor, partial curve, poor fit].
With CC1Nc2ncnc(N3CCN(c4ccccc4)CC3)c2N(Cc2ccccc2)C1=O (configuration not stated) the Potency was inconclusive [inhibitor, partial curve].
With O=S(=O)(Nc1ccon1)c1ccc(Br)cc1 the “activity change, negative = inhibition” value was inactive: -2.45%.
With CCCCOc1ccc(OCCNC(=O)c2ccco2)cc1 the Potency was active: 9.28 µM.
In the case of CC1CCN(C(=O)c2cc3ccccc3c(=O)o2)CC1, the “activity change, negative = inhibition” value is reported as inactive: 20.9%.
With Cc1ccccc1-n1c(SC/C(O)=C(\C#N)c2nc3ccccc3[nH]2)nnc1-c1ccncc1 the Potency was inconclusive [inhibitor, single point].
With CCOC(=O)/C=C(\C)Sc1cc(O)c2ccccc2c1O the Potency was active: 1.47 µM.
In the case of C/C(=N/Nc1ccc(Cl)cc1)c1cnnc(-c2ccccc2)n1, the Potency is reported as inconclusive [inhibitor, full curve].
In the case of O=C(CN1CCc2ccccc2C1)Nc1ccccc1N1CCCCCC1, the Potency is reported as active: 13.1 µM.
In the case of C=C(C)CNC(=S)Nc1nc2c(cc1C(=O)OCC)CCCC2, the “activity change, negative = inhibition” value is reported as inactive: 161%.
With Cc1cccc(NS(=O)(=O)c2ccc(C(=O)NCCCN3CCCC3=O)cc2)c1C the Potency was inconclusive [inhibitor, single point].
With O=C(COc1ccccc1)N1CCN(c2ccc([N+](=O)[O-])c(N3CCCCC3)c2)CC1 the Potency was inconclusive [inhibitor, partial curve].
In the case of CCOC(=O)N1CCC(NC(=O)c2cc(S(=O)(=O)N3CCC4(CC3)OCCO4)ccc2F)CC1, the Potency is reported as inconclusive [inhibitor, full curve, poor fit].
With CC1CN(S(=O)(=O)c2cccc(C(=O)OCc3cc(=O)oc4cc(O)ccc34)c2)CC(C)O1 (configuration not stated) the Potency was inconclusive [inhibitor, partial curve, poor fit].
With CCc1cccc(CC)c1N1C(=O)c2cc(N3CCOCC3)c([N+](=O)[O-])cc2C1=O the “activity change, negative = inhibition” value was inactive: 14.8%.
For Cc1cc(C)c(S(=O)(=O)N2CCC3(CC2)OCCN3S(=O)(=O)c2cccs2)c(C)c1, the Potency was inconclusive [inhibitor, single point].
For COc1ccc(-n2nc(C(=O)NCC(=O)NC3CCCCCC3)c3ccccc3c2=O)c(OC)c1, the Potency was inconclusive [inhibitor, partial curve, poor fit].
With CCCN1CCC(NC(=S)Nc2ccc(C(=O)OCC)cc2)CC1 the Potency was active: 11.7 µM.
With COc1ccc(C(=O)C2C(c3ccc(-c4ccccc4[N+](=O)[O-])o3)NC(=O)NC2(O)C(F)(F)F)cc1 (configuration not stated) the Potency was inconclusive [inhibitor, single point].
In the case of NS(=O)(=O)c1ccc(CCNC(=O)C2CCC(Cn3c(=S)[nH]c4ccccc4c3=O)CC2)cc1 (configuration not stated), the Potency is reported as inconclusive [inhibitor, partial curve, poor fit].
With COc1ccccc1C(=O)NCC(=O)N1CCN(S(=O)(=O)c2ccccc2C(F)(F)F)CC1 the Potency was inconclusive [inhibitor, single point].
In the case of COc1cccc(C(C)NC(=O)C2CCCO2)c1 (configuration not stated), the Potency is reported as inconclusive [inhibitor, partial curve, poor fit].
With CC1(C)CC(=O)C2=C(C1)N(c1ccccc1)C(N)=C(C#N)C2c1ccccc1 (configuration not stated) the Potency was inconclusive [inhibitor, single point].
